The supplement of paper PMC10477191
± gives the standard deviation of the averaged measurements. Some of the results follow.

What follows are compounds tested on Drosophila ezoana (assay: attraction index (odor vs solvent trap) (index (-1 to 1)); higher = more attraction to the odorant). Conditions: test temperature 23 °C; odor dose: 10^-2 dilution in mineral oil.
Method: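 Two-choice trap assay at 23 °C and 70% humidity. Starved adult flies (20 per box, 4-6 days old) chose between a trap with odorant (2 µl at 10^-2 in 200 µl mineral oil) and a solvent trap; counts were taken after 24 h.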
`CC(=O)c1ccccc1` [acetophenone] gave an attraction index of -0.54 ± 0.26.
`CCOC(=O)C(C)O` (stereo not drawn) [ethyl lactate] gave an attraction index of -0.02 ± 0.46.
`CCCCCCOC(C)=O` [hexyl acetate] was tested, and the attraction index was -0.201 ± 0.32.
`CCCCCCO` [1-hexanol] showed an attraction index of -0.0336 ± 0.4.
For `COc1cccc(OC)c1O` [2,6-dimethoxyphenol], the attraction index was 0.0943 ± 0.37.
`CCOC(=O)CC(C)O` (stereo not drawn) [ethyl 3-hydroxybutyrate] was tested, and the attraction index was -0.27 ± 0.53.
With `CCCC(=O)OCc1ccccc1` [benzyl butyrate] the attraction index was 0.449 ± 0.2.
Work on `COC(=O)c1ccccc1` [methyl benzoate] yielded an attraction index of -0.00603 ± 0.47.
`CCCCCC(=O)OCC` [ethyl hexanoate] gave an attraction index of 0.0823 ± 0.35.
Compound `CC(C)OC(=O)c1ccccc1` [isopropyl benzoate] has an attraction index of 0.0301 ± 0.34.
For `C=CC(O)CCCCC` (stereo not drawn) [1-octen-3-ol], the attraction index was -0.154 ± 0.23.
Work on `CCCCCOC(C)=O` [pentyl acetate] yielded an attraction index of 0.0885 ± 0.3.
In the case of `COc1ccccc1O` [guaiacol], the attraction index is reported as -0.424 ± 0.46.
`CC(=O)CCC=C(C)C` [6-methyl-5-hepten-2-one] was tested, and the attraction index was -0.0583 ± 0.56.
Work on `CC(=O)C(C)O` (stereo not drawn) [acetoin] yielded an attraction index of -0.22 ± 0.45.
`CCCCCC(C)=O` [2-heptanone] showed an attraction index of 0.404 ± 0.35.
With `CC(=O)OC/C=C(\C)CCC=C(C)C` [geranyl acetate] the attraction index was 0.128 ± 0.25.
For `COC(=O)c1ccccc1O` [methyl salicylate], the attraction index was 0.267 ± 0.19.
